The list shows a part of the results. Repeats are few or missing, and single values can be far off.
Tested on: UACC62
Test: cell count relative to DMSO control; melanoma cells; higher = more viable cells
Conditions: library dose: standard library concentration; 72 h
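Note: cells treated in 1,536-well plates, then fixed and DAPI-stained, with nuclei counted from automated high-throughput microscope images.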

SMILES	cell count [%]
CNC(=O)c1cc(Oc2ccc(NC(=O)Nc3ccc(Cl)c(C(F)(F)F)c3)cc2)ccn1 [sorafenib] + O=C(O)C(=O)Nc1sc2c(c1C(=O)O)CCNC2 [TCS401] (first compound 2 µM, partner dose 8.33333 µM)	101
C[C@@H](Oc1cc(-c2cnn(C3CCNCC3)c2)cnc1N)c1c(Cl)ccc(F)c1Cl [Crizotinib] + COc1cc2ncnc(Nc3ccc(Oc4ccccc4)cc3)c2cc1OC [SrcI1] (first compound 1 µM, partner dose 10 µM)	78.4
CS(=O)(=O)CCNCc1ccc(-c2ccc3ncnc(Nc4ccc(OCc5cccc(F)c5)c(Cl)c4)c3c2)o1 [lapatinib] + Oc1nc(-c2ccc(C(F)(F)F)cc2)nc2c1CSCC2 [XAV939] (first compound 4 µM, partner dose 10 µM)	70.3
C=CCNC1=C2C[C@@H](C)C[C@H](OC)[C@H](O)[C@@H](C)/C=C(\C)[C@H](OC(N)=O)[C@@H](OC)/C=C\C=C(/C)C(=O)NC(=CC1=O)C2=O [Tanespimycin] + O=C(O)C(=O)Nc1sc2c(c1C(=O)O)CCNC2 [TCS401] (first compound 0.01 µM, partner dose 8.33333 µM)	85.1
C=CCNC1=C2C[C@@H](C)C[C@H](OC)[C@H](O)[C@@H](C)/C=C(\C)[C@H](OC(N)=O)[C@@H](OC)/C=C\C=C(/C)C(=O)NC(=CC1=O)C2=O [Tanespimycin] + Oc1nc(-c2ccc(C(F)(F)F)cc2)nc2c1CSCC2 [XAV939] (first compound 0.01 µM, partner dose 10 µM)	41.3
CNC(=O)c1cc(Oc2ccc(NC(=O)Nc3ccc(Cl)c(C(F)(F)F)c3)cc2)ccn1 [sorafenib] + CCc1ccc(CCOc2ccc(CC3SC(=O)NC3=O)cc2)nc1 [pioglitazone] (first compound 2 µM, partner dose 10 µM)	84.6
C[C@@H](Oc1cc(-c2cnn(C3CCNCC3)c2)cnc1N)c1c(Cl)ccc(F)c1Cl [Crizotinib] + O=S(=O)(c1ccccc1)N(CC(F)(F)F)c1ccc(C(O)(C(F)(F)F)C(F)(F)F)cc1 [T0901317] (first compound 1 µM, partner dose 7 µM)	60.5
CN1CCN(c2ccc3nc(-c4c(N)c5c(F)cccc5[nH]c4=O)[nH]c3c2)CC1 [Dovitinib] + O=C(O)C(=O)Nc1sc2c(c1C(=O)O)CCNC2 [TCS401] (first compound 0.5 µM, partner dose 8.33333 µM)	91.2
CS(=O)(=O)CCNCc1ccc(-c2ccc3ncnc(Nc4ccc(OCc5cccc(F)c5)c(Cl)c4)c3c2)o1 [lapatinib] + N#Cc1c(O)c2c(-c3ccc(-c4ccccc4O)cc3)csc2[nH]c1=O [A769662] (first compound 4 µM, partner dose 10 µM)	74.8
CS(=O)(=O)CCNCc1ccc(-c2ccc3ncnc(Nc4ccc(OCc5cccc(F)c5)c(Cl)c4)c3c2)o1 [lapatinib] + O=C(O)C(=O)Nc1sc2c(c1C(=O)O)CCNC2 [TCS401] (first compound 4 µM, partner dose 8.33333 µM)	89.4
CN1CCN(c2ccc3nc(-c4c(N)c5c(F)cccc5[nH]c4=O)[nH]c3c2)CC1 [Dovitinib] + N#Cc1c(O)c2c(-c3ccc(-c4ccccc4O)cc3)csc2[nH]c1=O [A769662] (first compound 0.5 µM, partner dose 10 µM)	82.2
C[C@@H](Oc1cc(-c2cnn(C3CCNCC3)c2)cnc1N)c1c(Cl)ccc(F)c1Cl [Crizotinib] + O=C(Nc1ccccc1)c1cc([N+](=O)[O-])ccc1Cl [GW9662] (first compound 1 µM, partner dose 10 µM)	64

Tested on: WM115
Test: as above
Conditions: library dose: standard library concentration; 72 h

SMILES	cell count [%]
CS(=O)(=O)CCNCc1ccc(-c2ccc3ncnc(Nc4ccc(OCc5cccc(F)c5)c(Cl)c4)c3c2)o1 [lapatinib] + COc1cc2ncnc(Nc3ccc(Oc4ccccc4)cc3)c2cc1OC [SrcI1] (first compound 4 µM, partner dose 10 µM)	65.4
CNC(=O)c1cc(Oc2ccc(NC(=O)Nc3ccc(Cl)c(C(F)(F)F)c3)cc2)ccn1 [sorafenib] + COc1ccc2c(c1)CCC1C2CCC2(C)C(NCCCCCCN3C(=O)C=CC3=O)CCC12 [U73122] (first compound 2 µM, partner dose 2 µM)	81.2
CNC(=O)c1cc(Oc2ccc(NC(=O)Nc3ccc(Cl)c(C(F)(F)F)c3)cc2)ccn1 [sorafenib] + Cc1cc([N+](=O)[O-])ccc1NS(=O)(=O)c1cc(Cl)ccc1Cl [FH535] (first compound 2 µM, partner dose 5 µM)	59.8
CN1CCN(c2ccc3nc(-c4c(N)c5c(F)cccc5[nH]c4=O)[nH]c3c2)CC1 [Dovitinib] + CCc1ccc(CCOc2ccc(CC3SC(=O)NC3=O)cc2)nc1 [pioglitazone] (first compound 0.5 µM, partner dose 10 µM)	78.1
C=CCNC1=C2C[C@@H](C)C[C@H](OC)[C@H](O)[C@@H](C)/C=C(\C)[C@H](OC(N)=O)[C@@H](OC)/C=C\C=C(/C)C(=O)NC(=CC1=O)C2=O [Tanespimycin] + N#Cc1c(O)c2c(-c3ccc(-c4ccccc4O)cc3)csc2[nH]c1=O [A769662] (first compound 0.01 µM, partner dose 10 µM)	22.3
C[C@@H](Oc1cc(-c2cnn(C3CCNCC3)c2)cnc1N)c1c(Cl)ccc(F)c1Cl [Crizotinib] + Oc1nc(-c2ccc(C(F)(F)F)cc2)nc2c1CSCC2 [XAV939] (first compound 1 µM, partner dose 10 µM)	53.3
CS(=O)(=O)CCNCc1ccc(-c2ccc3ncnc(Nc4ccc(OCc5cccc(F)c5)c(Cl)c4)c3c2)o1 [lapatinib] + O=c1cc(-c2cccc3c2Sc2ccccc2S3)oc(N2CCOCC2)c1 [KU55933] (first compound 4 µM, partner dose 5 µM)	93.3
C=CCNC1=C2C[C@@H](C)C[C@H](OC)[C@H](O)[C@@H](C)/C=C(\C)[C@H](OC(N)=O)[C@@H](OC)/C=C\C=C(/C)C(=O)NC(=CC1=O)C2=O [Tanespimycin] + CCN(CC)CCCCNc1ncc2cc(-c3cc(OC)cc(OC)c3)c(NC(=O)NC(C)(C)C)nc2n1 [PD173074] (first compound 0.01 µM, partner dose 0.5 µM)	33.1
CS(=O)(=O)CCNCc1ccc(-c2ccc3ncnc(Nc4ccc(OCc5cccc(F)c5)c(Cl)c4)c3c2)o1 [lapatinib] + CCc1ccc(CCOc2ccc(CC3SC(=O)NC3=O)cc2)nc1 [pioglitazone] (first compound 4 µM, partner dose 10 µM)	96.7
CN1CCN(c2ccc3nc(-c4c(N)c5c(F)cccc5[nH]c4=O)[nH]c3c2)CC1 [Dovitinib] + COc1cc(N2CCC(N3CCN(C)CC3)CC2)ccc1Nc1ncc(Cl)c(Nc2ccccc2S(=O)(=O)C(C)C)n1 [NVP-TAE684] (first compound 0.5 µM, partner dose 0.4 µM)	40.5
CS(=O)(=O)CCNCc1ccc(-c2ccc3ncnc(Nc4ccc(OCc5cccc(F)c5)c(Cl)c4)c3c2)o1 [lapatinib] + COc1ccc2c(c1)CCC1C2CCC2(C)C(NCCCCCCN3C(=O)C=CC3=O)CCC12 [U73122] (first compound 4 µM, partner dose 2 µM)	89.9
CNC(=O)c1cc(Oc2ccc(NC(=O)Nc3ccc(Cl)c(C(F)(F)F)c3)cc2)ccn1 [sorafenib] + CCN(CC)CCCCNc1ncc2cc(-c3cc(OC)cc(OC)c3)c(NC(=O)NC(C)(C)C)nc2n1 [PD173074] (first compound 2 µM, partner dose 0.5 µM)	90.8
C=CCNC1=C2C[C@@H](C)C[C@H](OC)[C@H](O)[C@@H](C)/C=C(\C)[C@H](OC(N)=O)[C@@H](OC)/C=C\C=C(/C)C(=O)NC(=CC1=O)C2=O [Tanespimycin] + CCCCCCCCCCCC1=C(O)C(=O)C=C(O)C1=O [Embelin] (first compound 0.01 µM, partner dose 6 µM)	19.7
C=CCNC1=C2C[C@@H](C)C[C@H](OC)[C@H](O)[C@@H](C)/C=C(\C)[C@H](OC(N)=O)[C@@H](OC)/C=C\C=C(/C)C(=O)NC(=CC1=O)C2=O [Tanespimycin] + COc1ccc2c(c1)CCC1C2CCC2(C)C(NCCCCCCN3C(=O)C=CC3=O)CCC12 [U73122] (first compound 0.01 µM, partner dose 2 µM)	29.7
CNC(=O)c1cc(Oc2ccc(NC(=O)Nc3ccc(Cl)c(C(F)(F)F)c3)cc2)ccn1 [sorafenib] + O=C1NC(=O)/C(=C/c2ccc(-c3ccc(F)cc3O)o2)S1 [AS252424] (first compound 2 µM, partner dose 5 µM)	94.7
CN1CCN(c2ccc3nc(-c4c(N)c5c(F)cccc5[nH]c4=O)[nH]c3c2)CC1 [Dovitinib] + Oc1nc(-c2ccc(C(F)(F)F)cc2)nc2c1CSCC2 [XAV939] (first compound 0.5 µM, partner dose 10 µM)	86.1
CS(=O)(=O)CCNCc1ccc(-c2ccc3ncnc(Nc4ccc(OCc5cccc(F)c5)c(Cl)c4)c3c2)o1 [lapatinib] + CCCCCCCCCCCC1=C(O)C(=O)C=C(O)C1=O [Embelin] (first compound 4 µM, partner dose 6 µM)	83.8

Source: the supplement of paper PMC4604168 (melanoma cell lines)
